Drawing on patent US20080280910A1, “PHTHALAZINONE DERIVATIVES” (priority 2007, published 2008), this text covers IC50 for 59 compounds.

The pIC50 is the negative decadic logarithm of the IC50, by convention in mol/L.

pIC50: −log10 of the molar value. “And” between values parts separate entries of the source, which are not always exact repeats. Identical values can stand only once.

The target of the assay is Mammalian PARP, isolated from Hela cell nuclear extract (Homo sapiens, UniProt P09874). The experiment in a line: PARP inhibition assay (FlashPlate, 3H-NAD incorporation) to determine IC50. It is filed as biochemical. Conditions: mean IC50. Here is the method: In order to assess the inhibitory action of the compounds, the following assay was used to determine IC50 values (Dillon, et al., JBS., 8(3), 347-352 (2003)).
All compounds were diluted in DMSO and gave final assay concentrations of between 10 and 0.01 μM, with the DMSO being at a final concentration of 1% per well. The total assay volume per well was 40 μL.
After 10 minutes incubation at 30° C. the reactions were initiated by the addition of a 10 μl reaction mixture, containing NAD (5 μM), ^3H-NAD and 30mer double stranded DNA-oligos. Designated positive and negative reaction wells were done in combination with compound wells (unknowns) in order to calculate % enzyme activities. The plates were then shaken for 2 minutes and incubated at 30° C. for 45 minutes.
Following the incubation, the reactions were quenched by the addition of 50 μl 30% acetic acid to each well. The plates were then shaken for 1 hour at room temperature.
The plates were transferred to a TopCount NXT (TRADE MARK) (Packard, UK) for scintillation counting. Values recorded are counts per minute (cpm) following a 30 second counting of each well.
The % enzyme activity for each compound is then calculated using the following equation: […]
IC50 values (the concentration at which 50% of the enzyme activity is inhibited) were calculated, which are determined over a range of different concentrations, normally from 10 μM down to 0.001 μM. Such IC50 values are used as comparative values to identify increased compound potencies.
In the case of `CCCCCC(C)C(=O)Nc1ccc(-c2cc(Cc3n[nH]c(=O)c4ccccc34)ccc2F)cc1` (centres unmarked) [Compound 190], the negative-log IC50 (pIC50) is 6.56.

With `N#Cc1cccc(C(=O)Nc2ccc(-c3cc(Cc4n[nH]c(=O)c5ccccc45)ccc3F)cc2)c1` [Compound 191], the pIC50 is 6.68.

For the compound `O=C(CCc1ccccc1)Nc1ccc(-c2cc(Cc3n[nH]c(=O)c4ccccc34)ccc2F)cc1` [Compound 192], the pIC50 was 7.07.

For `C[C@@H](CC(=O)Nc1ccc(-c2cc(Cc3n[nH]c(=O)c4ccccc34)ccc2F)cc1)c1ccccc1` [Compound 193], the pIC50 is 6.63.

In the case of `Cc1cccc(CCC(=O)Nc2ccc(-c3cc(Cc4n[nH]c(=O)c5ccccc45)ccc3F)cc2)c1` [Compound 194], the negative logarithm of the IC50 (pIC50) was 6.72.

With `CN(C)c1cccc(C(=O)Nc2ccc(-c3cc(Cc4n[nH]c(=O)c5ccccc45)ccc3F)cc2)c1` [Compound 195], the pIC50 was 6.77.

For `O=C(Cc1ccncc1)Nc1ccc(-c2cc(Cc3n[nH]c(=O)c4ccccc34)ccc2F)cc1` [Compound 196], the negative logarithm of the IC50 (pIC50) is 6.92.

Regarding `O=C(Nc1ccc(-c2cc(Cc3n[nH]c(=O)c4ccccc34)ccc2F)cc1)Nc1ccccc1F` [Compound 197], the pIC50 is 6.92.

Turning to `O=C(Nc1ccc(-c2cc(Cc3n[nH]c(=O)c4ccccc34)ccc2F)cc1)NC1CCCCC1` [Compound 198], the pIC50 is 7.44.

Take `O=C(Nc1ccc(-c2cc(Cc3n[nH]c(=O)c4ccccc34)ccc2F)cc1)NC1CC1c1ccccc1` (centres unmarked) [Compound 199]: the pIC50 was 7.39.

For the compound `O=C(Nc1ccc(-c2cc(Cc3n[nH]c(=O)c4ccccc34)ccc2F)cc1)Nc1ccc2c(c1)OCCO2` [Compound 200], the negative-log IC50 (pIC50) was 6.95.

Take `O=C(Nc1ccccc1)Nc1ccc(-c2cc(Cc3n[nH]c(=O)c4ccccc34)ccc2F)cc1` [Compound 201]: the negative logarithm of the IC50 (pIC50) was 7.17.

On to `O=c1[nH]nc(Cc2ccc(F)c(-c3ccc(NS(=O)(=O)c4ccccc4)cc3)c2)c2ccccc12` [Compound 202], for which the negative logarithm of the IC50 (pIC50) was 7.64.

Consider `COc1ccc(S(=O)(=O)Nc2ccc(-c3cc(Cc4n[nH]c(=O)c5ccccc45)ccc3F)cc2)cc1` [Compound 203], for which the pIC50 was 7.70.

Turning to `O=c1[nH]nc(Cc2ccc(F)c(-c3ccc(NS(=O)(=O)c4ccc(Cl)cc4)cc3)c2)c2ccccc12` [Compound 204], the negative-log IC50 (pIC50) is 7.39.

With `Cc1noc(C)c1S(=O)(=O)Nc1ccc(-c2cc(Cc3n[nH]c(=O)c4ccccc34)ccc2F)cc1` [Compound 205], the pIC50 was 8.10.

In the case of `O=c1[nH]nc(Cc2ccc(F)c(-c3ccc(NS(=O)(=O)c4ccc(F)cc4)cc3)c2)c2ccccc12` [Compound 206], the negative logarithm of the IC50 (pIC50) is 7.85.

Take `O=c1[nH]nc(Cc2ccc(F)c(-c3ccc(NS(=O)(=O)c4cccc5nonc45)cc3)c2)c2ccccc12` [Compound 207]: the negative logarithm of the IC50 (pIC50) is 8.00.

Consider `CCCCS(=O)(=O)Nc1ccc(-c2cc(Cc3n[nH]c(=O)c4ccccc34)ccc2F)cc1` [Compound 208], for which the negative logarithm of the IC50 (pIC50) was 8.40.

`O=c1[nH]nc(Cc2ccc(F)c(-c3ccc(NS(=O)(=O)Cc4ccccc4)cc3)c2)c2ccccc12` [Compound 209]: the negative logarithm of the IC50 (pIC50) was 8.30.

Regarding `N#Cc1ccc(S(=O)(=O)Nc2ccc(-c3cc(Cc4n[nH]c(=O)c5ccccc45)ccc3F)cc2)cc1` [Compound 210], the negative logarithm of the IC50 (pIC50) was 7.49.

With `Cc1nc(C)c(S(=O)(=O)Nc2ccc(-c3cc(Cc4n[nH]c(=O)c5ccccc45)ccc3F)cc2)s1` [Compound 211], the negative-log IC50 (pIC50) was 8.15.

`O=c1[nH]nc(Cc2ccc(F)c(-c3ccc(NS(=O)(=O)c4cccs4)cc3)c2)c2ccccc12` [Compound 212]: the pIC50 is 7.85.

With `O=c1[nH]nc(Cc2ccc(F)c(-c3ccc(NS(=O)(=O)c4ccc(Cl)s4)cc3)c2)c2ccccc12` [Compound 213], the pIC50 is 7.57.

In the case of `Cc1oncc1S(=O)(=O)Nc1ccc(-c2cc(Cc3n[nH]c(=O)c4ccccc34)ccc2F)cc1` [Compound 214], the pIC50 is 8.00.

In the case of `CCN1CCN(C(=O)c2ccc(-c3cc(Cc4n[nH]c(=O)c5ccccc45)ccc3F)cc2)CC1` [Compound 215], the pIC50 is 6.12.

With `COCCN1CCN(C(=O)c2ccc(-c3cc(Cc4n[nH]c(=O)c5ccccc45)ccc3F)cc2)CC1` [Compound 216], the pIC50 is 5.92.

In the case of `O=C(c1ccc(-c2cc(Cc3n[nH]c(=O)c4ccccc34)ccc2F)cc1)N1CCN(CCO)CC1` [Compound 217], the negative logarithm of the IC50 (pIC50) was 6.08.

Regarding `CN1CCCN(C(=O)c2ccc(-c3cc(Cc4n[nH]c(=O)c5ccccc45)ccc3F)cc2)CC1` [Compound 218], the pIC50 is 5.77.

With `CN1CCN(C(=O)c2ccc(-c3cc(Cc4n[nH]c(=O)c5ccccc45)ccc3F)cc2)CC1` [Compound 219], the pIC50 is 5.92.

For the compound `O=C(c1ccc(-c2cc(Cc3n[nH]c(=O)c4ccccc34)ccc2F)cc1)N1CCCN(CCO)CC1` [Compound 221], the pIC50 is 5.80.

As to `CC(=O)N1CCN(C(=O)c2ccc(-c3cc(Cc4n[nH]c(=O)c5ccccc45)ccc3F)cc2)CC1` [Compound 222], the negative logarithm of the IC50 (pIC50) was 6.00.

As to `O=C(c1ccc(-c2cc(Cc3n[nH]c(=O)c4ccccc34)ccc2F)cc1)N1CCc2ccccc2C1` [Compound 223], the pIC50 was 7.01.

Take `CC(=O)c1cccc(-c2csc(Cc3n[nH]c(=O)c4ccccc34)c2)c1` [Compound 224]: the pIC50 is 6.03.

Consider `O=C(NCc1ccco1)c1cccc(-c2csc(Cc3n[nH]c(=O)c4ccccc34)c2)c1` [Compound 227], for which the negative logarithm of the IC50 (pIC50) was 6.72.

As for `O=c1[nH]nc(Cc2cc(-c3ccoc3)cs2)c2ccccc12` [Compound 228], the negative logarithm of the IC50 (pIC50) is 6.50.

On to `O=c1[nH]nc(Cc2csc(-c3ccccc3)n2)c2ccccc12` [Compound 229, 4-(2-Phenyl-thiazol-4-ylmethyl)-2H-phthalazin-1-one], for which the pIC50 is 6.19.

Turning to `O=c1[nH]nc(Cc2ccc(F)c(-c3ccc(CNCc4ccc(F)cc4)o3)c2)c2ccccc12` [Compound 230], the pIC50 is 7.52.

Regarding `O=c1[nH]nc(Cc2ccc(F)c(-c3ccc(CN4CCN(c5ccccc5)CC4)o3)c2)c2ccccc12` [Compound 231], the pIC50 was 7.24.

`O=c1[nH]nc(Cc2ccc(F)c(-c3ccc(CNCc4ccccc4)o3)c2)c2ccccc12` [Compound 232]: the pIC50 is 7.55.

With `O=c1[nH]nc(Cc2ccc(F)c(-c3ccc(CN4CCN(c5ccccn5)CC4)o3)c2)c2ccccc12` [Compound 233], the negative logarithm of the IC50 (pIC50) is 7.59.

In the case of `O=c1[nH]nc(Cc2ccc(F)c(-c3ccc(CN4CCc5ccccc5C4)o3)c2)c2ccccc12` [Compound 234], the negative logarithm of the IC50 (pIC50) is 7.15.

For `CN1CCN(Cc2ccc(-c3cc(Cc4n[nH]c(=O)c5ccccc45)ccc3F)o2)CC1` [Compound 235], the negative logarithm of the IC50 (pIC50) was 7.39.

Turning to `O=c1[nH]nc(Cc2ccc(F)c(-c3ccc(CN4CCOCC4)o3)c2)c2ccccc12` [Compound 236], the negative-log IC50 (pIC50) is 7.35.

As for `O=c1[nH]nc(Cc2ccc(F)c(-c3ccc(CN4CCCCC4)o3)c2)c2ccccc12` [Compound 237], the pIC50 is 7.37.

`COCCN1CCN(Cc2ccc(-c3cc(Cc4n[nH]c(=O)c5ccccc45)ccc3F)o2)CC1` [Compound 238]: the negative-log IC50 (pIC50) was 7.46.

`O=c1[nH]nc(Cc2ccc(F)c(-c3ccc(CN4CCN(C5CCCCC5)CC4)o3)c2)c2ccccc12` [Compound 239]: the negative-log IC50 (pIC50) is 7.05.

As for `CN(C)CCN1CCN(Cc2ccc(-c3cc(Cc4n[nH]c(=O)c5ccccc45)ccc3F)o2)CC1` [Compound 240], the pIC50 is 7.52.

As for `CC(C)N1CCN(Cc2ccc(-c3cc(Cc4n[nH]c(=O)c5ccccc45)ccc3F)o2)CC1` [Compound 241], the pIC50 is 6.91.

For `O=c1[nH]nc(Cc2ccc(F)c(-c3ccc(NS(=O)(=O)CC4CCCCC4)cc3)c2)c2ccccc12` [Compound 242], the pIC50 is 8.10.

Take `O=c1[nH]nc(Cc2ccc(F)c(-c3ccc(NS(=O)(=O)CC4CCOC4)cc3)c2)c2ccccc12` (centres unmarked) [Compound 243]: the pIC50 is 8.52.

Take `O=c1[nH]nc(Cc2ccc(F)c(-c3ccc(NS(=O)(=O)CC4CCOCC4)cc3)c2)c2ccccc12` [Compound 244]: the pIC50 was 8.52.

On to `O=c1[nH]nc(Cc2ccc(F)c(-c3ccc(NS(=O)(=O)CCC4CCCCC4)cc3)c2)c2ccccc12` [Compound 246], for which the negative logarithm of the IC50 (pIC50) is 7.39.

As for `O=c1[nH]nc(Cc2ccc(F)c(-c3ccc(NS(=O)(=O)CC4CC4)cc3)c2)c2ccccc12` [Compound 248], the pIC50 was 8.52.

`Nc1ccc(-c2cc(Cc3n[nH]c(=O)c4ccccc34)ccn2)cc1` [Compound 249, 4-[2-(4-Amino-phenyl)-pyridin-4-ylmethyl]-2H-phthalazin-1-one]: the pIC50 was 7.19.

For `O=c1[nH]nc(Cc2ccnc(-c3ccc(NS(=O)(=O)CC4CCOC4)cc3)c2)c2ccccc12` (centres unmarked) [Compound 252], the negative-log IC50 (pIC50) is 8.05 and 8.10.

In the case of `O=C(Cc1ccccc1)Nc1ccc(-c2cc(Cc3n[nH]c(=O)c4ccccc34)ccn2)cc1` [Compound 253], the negative-log IC50 (pIC50) was 6.75.

For `O=C(CC1CCCO1)Nc1ccc(-c2cc(Cc3n[nH]c(=O)c4ccccc34)ccn2)cc1` (centres unmarked) [Compound 254], the pIC50 was 6.44.

On to `CC(=O)c1ccc(-c2cc(Cc3n[nH]c(=O)c4c3CCCC4)ccc2F)cc1` [Compound 255, 4-(4′-Acetyl-6-fluoro-biphenyl-3-ylmethyl)-5,6,7,8-tetrahydro-2H-phthalazin-1-one], for which the negative logarithm of the IC50 (pIC50) is 7.28.
